11 molecules from PMC7364817 can be followed below.

The chains behind the UniProt entries cited, without tags or fusion partners.
UniProt Q13283: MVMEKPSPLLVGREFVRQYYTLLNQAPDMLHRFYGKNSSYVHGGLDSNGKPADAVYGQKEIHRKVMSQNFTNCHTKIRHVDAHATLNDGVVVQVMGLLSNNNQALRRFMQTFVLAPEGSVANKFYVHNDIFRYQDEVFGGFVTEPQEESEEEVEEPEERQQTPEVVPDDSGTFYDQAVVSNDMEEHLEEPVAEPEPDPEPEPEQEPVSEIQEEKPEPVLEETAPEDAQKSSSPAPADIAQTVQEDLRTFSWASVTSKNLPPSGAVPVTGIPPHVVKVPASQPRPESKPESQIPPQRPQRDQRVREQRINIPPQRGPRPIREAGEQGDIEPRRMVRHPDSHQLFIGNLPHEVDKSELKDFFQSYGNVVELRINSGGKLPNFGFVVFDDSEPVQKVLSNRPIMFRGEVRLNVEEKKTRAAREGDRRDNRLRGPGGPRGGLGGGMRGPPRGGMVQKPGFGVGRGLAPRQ
UniProt P62820: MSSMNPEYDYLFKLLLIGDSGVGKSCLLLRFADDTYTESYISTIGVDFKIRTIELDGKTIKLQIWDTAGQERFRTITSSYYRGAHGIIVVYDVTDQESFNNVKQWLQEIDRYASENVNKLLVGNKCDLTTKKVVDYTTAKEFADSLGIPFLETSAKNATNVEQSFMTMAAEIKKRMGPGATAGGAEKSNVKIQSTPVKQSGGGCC
UniProt P51149: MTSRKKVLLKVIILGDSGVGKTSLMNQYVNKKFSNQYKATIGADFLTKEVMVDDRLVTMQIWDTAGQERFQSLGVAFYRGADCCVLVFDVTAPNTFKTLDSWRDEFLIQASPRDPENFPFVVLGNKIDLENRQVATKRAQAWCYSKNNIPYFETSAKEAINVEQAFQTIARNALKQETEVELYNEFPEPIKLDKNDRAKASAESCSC
UniProt Q13148: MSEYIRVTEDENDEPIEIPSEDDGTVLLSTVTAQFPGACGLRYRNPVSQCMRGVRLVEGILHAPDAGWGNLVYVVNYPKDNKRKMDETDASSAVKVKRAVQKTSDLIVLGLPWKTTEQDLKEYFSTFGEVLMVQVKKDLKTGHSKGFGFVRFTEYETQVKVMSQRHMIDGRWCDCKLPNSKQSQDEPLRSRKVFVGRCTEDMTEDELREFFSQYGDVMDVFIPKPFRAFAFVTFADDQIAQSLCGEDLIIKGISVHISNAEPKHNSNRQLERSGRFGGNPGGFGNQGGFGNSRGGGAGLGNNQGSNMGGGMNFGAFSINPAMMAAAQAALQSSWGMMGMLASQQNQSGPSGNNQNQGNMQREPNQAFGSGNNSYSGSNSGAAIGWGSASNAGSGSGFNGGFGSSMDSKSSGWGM
UniProt Q9UNE7: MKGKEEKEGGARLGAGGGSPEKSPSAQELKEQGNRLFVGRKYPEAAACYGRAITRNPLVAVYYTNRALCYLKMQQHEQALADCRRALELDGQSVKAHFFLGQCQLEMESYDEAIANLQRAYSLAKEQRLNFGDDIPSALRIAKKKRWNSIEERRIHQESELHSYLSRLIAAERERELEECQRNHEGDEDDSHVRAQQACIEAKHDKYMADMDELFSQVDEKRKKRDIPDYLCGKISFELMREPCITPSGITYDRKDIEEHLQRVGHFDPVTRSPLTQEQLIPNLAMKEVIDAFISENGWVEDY

These are yes or no findings as the source states them, for the method shown. In cells and extracts the contact can be indirect. Some entries that bind do so weakly or less than the wild type. Tags and fused reporters may be left off the sequences shown.

The target of assay [1] is T1, FLAG-tagged SMCR8 (Smith-Magenis Syndrome Chromosome Region, Candidate 8) (UniProt Q8TEV9).
T1 sequence: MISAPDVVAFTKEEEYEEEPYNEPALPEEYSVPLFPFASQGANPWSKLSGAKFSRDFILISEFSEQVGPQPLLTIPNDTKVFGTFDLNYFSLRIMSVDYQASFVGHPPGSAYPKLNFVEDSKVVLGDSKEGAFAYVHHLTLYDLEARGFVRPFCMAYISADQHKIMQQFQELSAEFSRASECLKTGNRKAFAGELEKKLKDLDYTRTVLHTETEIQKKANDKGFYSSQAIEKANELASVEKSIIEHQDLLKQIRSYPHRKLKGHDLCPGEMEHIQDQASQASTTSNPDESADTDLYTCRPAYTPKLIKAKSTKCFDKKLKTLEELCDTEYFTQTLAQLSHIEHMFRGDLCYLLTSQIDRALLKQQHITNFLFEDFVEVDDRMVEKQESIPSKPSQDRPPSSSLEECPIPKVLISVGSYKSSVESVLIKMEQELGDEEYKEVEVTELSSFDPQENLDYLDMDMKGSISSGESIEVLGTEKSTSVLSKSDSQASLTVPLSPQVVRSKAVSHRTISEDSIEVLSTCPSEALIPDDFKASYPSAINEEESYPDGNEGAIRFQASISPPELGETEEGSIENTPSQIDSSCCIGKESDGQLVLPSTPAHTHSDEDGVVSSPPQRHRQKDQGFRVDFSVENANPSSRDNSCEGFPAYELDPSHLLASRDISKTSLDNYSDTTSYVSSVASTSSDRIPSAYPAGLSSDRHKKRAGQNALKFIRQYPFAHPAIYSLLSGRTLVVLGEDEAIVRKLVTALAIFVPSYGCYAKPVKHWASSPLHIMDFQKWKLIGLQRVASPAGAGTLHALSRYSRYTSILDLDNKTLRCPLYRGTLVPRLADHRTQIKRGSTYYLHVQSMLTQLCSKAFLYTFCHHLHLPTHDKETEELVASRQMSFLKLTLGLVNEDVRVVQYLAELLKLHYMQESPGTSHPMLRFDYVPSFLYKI
Kind of assay: co-IP; tagged test protein cotransfected with FL-SMCR8 or empty vector in HEK 293T; lysis buffer 160 mM NaCl, 50 mM Tris, 1 mM EDTA, 0.25% NP40; IP on α-FLAG agarose with or without 50 μg/ml RNases; Western blot.

Assay [2] addresses T2, C9orf72 long isoform with C-terminal FLAG tag (human) (UniProt Q96LT7).
T2 sequence: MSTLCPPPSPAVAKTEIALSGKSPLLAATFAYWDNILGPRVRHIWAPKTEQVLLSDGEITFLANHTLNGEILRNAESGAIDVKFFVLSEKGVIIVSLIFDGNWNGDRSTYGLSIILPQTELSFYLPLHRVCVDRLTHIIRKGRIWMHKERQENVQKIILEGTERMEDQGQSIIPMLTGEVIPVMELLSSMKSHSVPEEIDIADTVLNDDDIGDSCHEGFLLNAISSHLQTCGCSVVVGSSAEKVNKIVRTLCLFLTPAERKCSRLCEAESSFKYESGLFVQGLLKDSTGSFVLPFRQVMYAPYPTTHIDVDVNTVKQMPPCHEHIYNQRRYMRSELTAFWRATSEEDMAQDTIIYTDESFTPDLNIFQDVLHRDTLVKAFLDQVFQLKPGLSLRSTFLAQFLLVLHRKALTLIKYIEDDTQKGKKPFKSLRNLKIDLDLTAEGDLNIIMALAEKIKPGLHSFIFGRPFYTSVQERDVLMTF
Kind of assay: co-IP; V5-RAB7A with overexpressed C9orf72, data not shown; with or without RNase.

The target of assay [3] is T2, C9orf72 long isoform with C-terminal FLAG tag (human). Kind of assay: co-IP; α-FLAG IP from lysates of HEK 293T cells transfected with the FLAG-tagged bait, Western blot of the immunoprecipitate; also in the presence of RNase.
Assay [4] has as its target T3, FLAG-tagged WDR41 (WD Repeat domain 41) (UniProt Q9HAD4).
T3 sequence: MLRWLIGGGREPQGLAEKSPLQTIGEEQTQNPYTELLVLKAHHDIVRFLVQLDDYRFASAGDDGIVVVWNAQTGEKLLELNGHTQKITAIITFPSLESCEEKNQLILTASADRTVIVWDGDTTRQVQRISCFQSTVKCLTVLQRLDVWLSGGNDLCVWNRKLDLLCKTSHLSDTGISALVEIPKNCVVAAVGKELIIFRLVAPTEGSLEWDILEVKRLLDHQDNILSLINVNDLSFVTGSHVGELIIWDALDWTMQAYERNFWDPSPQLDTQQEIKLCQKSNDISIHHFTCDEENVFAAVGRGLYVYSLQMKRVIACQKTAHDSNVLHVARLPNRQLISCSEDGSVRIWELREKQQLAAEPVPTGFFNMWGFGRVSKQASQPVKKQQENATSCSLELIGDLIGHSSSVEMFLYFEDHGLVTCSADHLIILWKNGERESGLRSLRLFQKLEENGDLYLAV
The description is as above.

In assay [5] the target is T1, FLAG-tagged SMCR8 (Smith-Magenis Syndrome Chromosome Region, Candidate 8). The assay is described as above.
The target of assay [6] is T4, FLAG-tagged WDR41 (WD Repeat domain 41), Q9HAD4.
T4 chain: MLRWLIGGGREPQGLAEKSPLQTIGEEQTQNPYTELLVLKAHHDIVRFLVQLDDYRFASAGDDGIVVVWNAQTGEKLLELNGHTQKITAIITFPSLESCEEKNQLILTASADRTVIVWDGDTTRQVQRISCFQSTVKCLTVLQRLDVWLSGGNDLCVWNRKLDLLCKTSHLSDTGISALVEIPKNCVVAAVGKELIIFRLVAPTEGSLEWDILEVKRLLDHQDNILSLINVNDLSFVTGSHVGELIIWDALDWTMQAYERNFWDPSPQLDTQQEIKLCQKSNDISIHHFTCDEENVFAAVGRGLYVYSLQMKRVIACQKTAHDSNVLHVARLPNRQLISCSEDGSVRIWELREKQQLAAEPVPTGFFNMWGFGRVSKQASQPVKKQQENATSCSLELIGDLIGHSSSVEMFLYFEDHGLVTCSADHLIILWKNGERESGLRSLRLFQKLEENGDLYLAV
Described as above. The following applies: remark: other sources report otherwise.

For the molecule “V5-tagged G3BP1 (from UniProt Q13283 1-466)”, the binding result in assay [1] is recorded as “no binding”.

Consider “V5-tagged SQSTM1 (p62) (from UniProt Q13501 1-440)”, for which the binding entry in assay [1] is given as “binds”.

As to “V5-tagged RAB1A (from UniProt P62820 1-205)”, in assay [1], the binding result is listed as “no binding”.

With V5-RAB7A (from UniProt P51149 1-207), the binding result in assay [1] and in assay [2] was “binds weakly” each time.

Consider “tagged TAR DNA binding protein 43 (TDP-43) (from UniProt Q13148 1-414)”, for which the binding result in assay [1] is “binds”.

Regarding “V5-tagged STUB1 (from UniProt Q9UNE7 1-303)”, in assay [1], the binding entry was “binds”.

B1: Smith-Magenis syndrome chromosome region, candidate 8, endogenous (protein, UniProt Q8TEV9 1-937)
chain: MISAPDVVAFTKEEEYEEEPYNEPALPEEYSVPLFPFASQGANPWSKLSGAKFSRDFILISEFSEQVGPQPLLTIPNDTKVFGTFDLNYFSLRIMSVDYQASFVGHPPGSAYPKLNFVEDSKVVLGDSKEGAFAYVHHLTLYDLEARGFVRPFCMAYISADQHKIMQQFQELSAEFSRASECLKTGNRKAFAGELEKKLKDLDYTRTVLHTETEIQKKANDKGFYSSQAIEKANELASVEKSIIEHQDLLKQIRSYPHRKLKGHDLCPGEMEHIQDQASQASTTSNPDESADTDLYTCRPAYTPKLIKAKSTKCFDKKLKTLEELCDTEYFTQTLAQLSHIEHMFRGDLCYLLTSQIDRALLKQQHITNFLFEDFVEVDDRMVEKQESIPSKPSQDRPPSSSLEECPIPKVLISVGSYKSSVESVLIKMEQELGDEEYKEVEVTELSSFDPQENLDYLDMDMKGSISSGESIEVLGTEKSTSVLSKSDSQASLTVPLSPQVVRSKAVSHRTISEDSIEVLSTCPSEALIPDDFKASYPSAINEEESYPDGNEGAIRFQASISPPELGETEEGSIENTPSQIDSSCCIGKESDGQLVLPSTPAHTHSDEDGVVSSPPQRHRQKDQGFRVDFSVENANPSSRDNSCEGFPAYELDPSHLLASRDISKTSLDNYSDTTSYVSSVASTSSDRIPSAYPAGLSSDRHKKRAGQNALKFIRQYPFAHPAIYSLLSGRTLVVLGEDEAIVRKLVTALAIFVPSYGCYAKPVKHWASSPLHIMDFQKWKLIGLQRVASPAGAGTLHALSRYSRYTSILDLDNKTLRCPLYRGTLVPRLADHRTQIKRGSTYYLHVQSMLTQLCSKAFLYTFCHHLHLPTHDKETEELVASRQMSFLKLTLGLVNEDVRVVQYLAELLKLHYMQESPGTSHPMLRFDYVPSFLYKI
In the case of B1, the binding result in assay [3] and in assay [4] was “binds” throughout.

B2: HA-tagged SMCR8 (protein, UniProt Q8TEV9 1-937)
chain: MISAPDVVAFTKEEEYEEEPYNEPALPEEYSVPLFPFASQGANPWSKLSGAKFSRDFILISEFSEQVGPQPLLTIPNDTKVFGTFDLNYFSLRIMSVDYQASFVGHPPGSAYPKLNFVEDSKVVLGDSKEGAFAYVHHLTLYDLEARGFVRPFCMAYISADQHKIMQQFQELSAEFSRASECLKTGNRKAFAGELEKKLKDLDYTRTVLHTETEIQKKANDKGFYSSQAIEKANELASVEKSIIEHQDLLKQIRSYPHRKLKGHDLCPGEMEHIQDQASQASTTSNPDESADTDLYTCRPAYTPKLIKAKSTKCFDKKLKTLEELCDTEYFTQTLAQLSHIEHMFRGDLCYLLTSQIDRALLKQQHITNFLFEDFVEVDDRMVEKQESIPSKPSQDRPPSSSLEECPIPKVLISVGSYKSSVESVLIKMEQELGDEEYKEVEVTELSSFDPQENLDYLDMDMKGSISSGESIEVLGTEKSTSVLSKSDSQASLTVPLSPQVVRSKAVSHRTISEDSIEVLSTCPSEALIPDDFKASYPSAINEEESYPDGNEGAIRFQASISPPELGETEEGSIENTPSQIDSSCCIGKESDGQLVLPSTPAHTHSDEDGVVSSPPQRHRQKDQGFRVDFSVENANPSSRDNSCEGFPAYELDPSHLLASRDISKTSLDNYSDTTSYVSSVASTSSDRIPSAYPAGLSSDRHKKRAGQNALKFIRQYPFAHPAIYSLLSGRTLVVLGEDEAIVRKLVTALAIFVPSYGCYAKPVKHWASSPLHIMDFQKWKLIGLQRVASPAGAGTLHALSRYSRYTSILDLDNKTLRCPLYRGTLVPRLADHRTQIKRGSTYYLHVQSMLTQLCSKAFLYTFCHHLHLPTHDKETEELVASRQMSFLKLTLGLVNEDVRVVQYLAELLKLHYMQESPGTSHPMLRFDYVPSFLYKI
Take B2: the binding entry in assay [3] is recorded as “binds”.

B3: chromosome 9 open reading frame 72, long isoform, endogenous (protein, UniProt Q96LT7 1-481)
chain: MSTLCPPPSPAVAKTEIALSGKSPLLAATFAYWDNILGPRVRHIWAPKTEQVLLSDGEITFLANHTLNGEILRNAESGAIDVKFFVLSEKGVIIVSLIFDGNWNGDRSTYGLSIILPQTELSFYLPLHRVCVDRLTHIIRKGRIWMHKERQENVQKIILEGTERMEDQGQSIIPMLTGEVIPVMELLSSMKSHSVPEEIDIADTVLNDDDIGDSCHEGFLLNAISSHLQTCGCSVVVGSSAEKVNKIVRTLCLFLTPAERKCSRLCEAESSFKYESGLFVQGLLKDSTGSFVLPFRQVMYAPYPTTHIDVDVNTVKQMPPCHEHIYNQRRYMRSELTAFWRATSEEDMAQDTIIYTDESFTPDLNIFQDVLHRDTLVKAFLDQVFQLKPGLSLRSTFLAQFLLVLHRKALTLIKYIEDDTQKGKKPFKSLRNLKIDLDLTAEGDLNIIMALAEKIKPGLHSFIFGRPFYTSVQERDVLMTF
For the molecule B3, the binding entry in assay [5] was “binds”.

B4: chromosome 9 open reading frame 72, long isoform, endogenous, Q96LT7 1-481 (protein)
chain: MSTLCPPPSPAVAKTEIALSGKSPLLAATFAYWDNILGPRVRHIWAPKTEQVLLSDGEITFLANHTLNGEILRNAESGAIDVKFFVLSEKGVIIVSLIFDGNWNGDRSTYGLSIILPQTELSFYLPLHRVCVDRLTHIIRKGRIWMHKERQENVQKIILEGTERMEDQGQSIIPMLTGEVIPVMELLSSMKSHSVPEEIDIADTVLNDDDIGDSCHEGFLLNAISSHLQTCGCSVVVGSSAEKVNKIVRTLCLFLTPAERKCSRLCEAESSFKYESGLFVQGLLKDSTGSFVLPFRQVMYAPYPTTHIDVDVNTVKQMPPCHEHIYNQRRYMRSELTAFWRATSEEDMAQDTIIYTDESFTPDLNIFQDVLHRDTLVKAFLDQVFQLKPGLSLRSTFLAQFLLVLHRKALTLIKYIEDDTQKGKKPFKSLRNLKIDLDLTAEGDLNIIMALAEKIKPGLHSFIFGRPFYTSVQERDVLMTF
As to B4, in assay [6], the binding result is on record as “binds”.

B5: C9orf72 short isoform, endogenous (protein, UniProt Q96LT7-2 1-222)
chain: MSTLCPPPSPAVAKTEIALSGKSPLLAATFAYWDNILGPRVRHIWAPKTEQVLLSDGEITFLANHTLNGEILRNAESGAIDVKFFVLSEKGVIIVSLIFDGNWNGDRSTYGLSIILPQTELSFYLPLHRVCVDRLTHIIRKGRIWMHKERQENVQKIILEGTERMEDQGQSIIPMLTGEVIPVMELLSSMKSHSVPEEIDIADTVLNDDDIGDSCHEGFLLK
For B5, the binding result in assay [4] and in assay [5] was “no binding” throughout.
